Results published in the RNAGym collection of RNA variant scans (doi:10.7554/elife.90254).
The source gives no read counts; variants with many changes may rest on few reads.

B1: LINE1-mini (parent)
chain: GGCAGAGCUCAACACAGCGUGGCAAAGUGGCUGUGGCUAGACUGCC

Variants of: B1
Assay: self-cleavage, relative activity (ratio to wild type); higher = more cleavage; in vitro, sequencing; the parent is a self-cleaving ribozyme

With A4U A14U C37U as the variant, how does the self-cleavage read?
Its self-cleavage is 0.05.

With A4G G33U C42G as the variant, how does the self-cleavage read?
The self-cleavage was 0.03.

Which self-cleavage does the source give for A4G G7A G30U G36C here?
Its self-cleavage is 0.13.

For A4G G5U G36C, which self-cleavage is on record?
Its self-cleavage is 0.07.

Which self-cleavage does the source give for A4U A26C G36C here?
Its self-cleavage is 1.11.

For A4G C31U C37A, which self-cleavage is on record?
The self-cleavage was 0.05.

Which self-cleavage does the source give for A4G G29U G40U here?
The self-cleavage was 0.07.

Which self-cleavage does the source give for A4G U9C A14U C42G here?
The self-cleavage was 0.01.

For A4U A16C G17A C46U, which self-cleavage is on record?
The self-cleavage was 0.02.

Which self-cleavage does the source give for A4U A11U A14C here?
Its self-cleavage is 0.02.

Which self-cleavage does the source give for A4U A6U U20A C42U C45U here?
The self-cleavage was 0.03.

For A4U C8U C42G, which self-cleavage is on record?
Its self-cleavage is 0.14.

For A4G U28G U32G C42U U43C, which self-cleavage is on record?
The self-cleavage was 0.01.

Which self-cleavage does the source give for A4G G29A G36U C42A here?
The self-cleavage was 0.01.

With A4G G7U A24G G27U as the variant, how does the self-cleavage read?
Its self-cleavage is 0.05.

For A4G U9C G35C, which self-cleavage is on record?
Its self-cleavage is 0.03.

For A4G G21A A24G G36U C37U, which self-cleavage is on record?
The self-cleavage was 0.45.

With A4G G29U U43A as the variant, how does the self-cleavage read?
The self-cleavage was 0.03.

Which self-cleavage does the source give for A4U A14U G35C here?
The self-cleavage was 0.11.

Which self-cleavage does the source give for A4G G17A A25C here?
Its self-cleavage is 0.08.

For A4U A16C G21A A26C U28C, which self-cleavage is on record?
Its self-cleavage is 0.04.

For A4U A14U A41U, which self-cleavage is on record?
The self-cleavage was 0.13.

For A4U A14C G21U U28A G33A, which self-cleavage is on record?
The self-cleavage was 0.03.

Which self-cleavage does the source give for A4U C10A C23G here?
Its self-cleavage is 0.02.

With A4U A11C G44C as the variant, how does the self-cleavage read?
Its self-cleavage is 0.02.

For A4U A39U C46G, which self-cleavage is on record?
The self-cleavage was 0.02.

For A4U C8G G22C G44U, which self-cleavage is on record?
Its self-cleavage is 0.01.

With A4G U9G C15A as the variant, how does the self-cleavage read?
The self-cleavage was 0.15.

Which self-cleavage does the source give for A4G G17A U28A U38C U43C here?
The self-cleavage was 0.02.

Which self-cleavage does the source give for A4G G17A G27A U38C here?
The self-cleavage was 0.05.

For A4U C10A C31G G35A, which self-cleavage is on record?
The self-cleavage was 0.04.

For A4U A26G G35A, which self-cleavage is on record?
The self-cleavage was 0.01.

For A4G G5A U32C, which self-cleavage is on record?
The self-cleavage was 0.07.

Which self-cleavage does the source give for A4G G22C C23U here?
Its self-cleavage is 0.21.

Which self-cleavage does the source give for A4G G7A C31U C42A G44C here?
The self-cleavage was 0.02.

Which self-cleavage does the source give for A4G G30A G33U U38C here?
The self-cleavage was 0.07.

Which self-cleavage does the source give for A4G G33U U38A here?
Its self-cleavage is 0.15.

With A4U C10A C31A as the variant, how does the self-cleavage read?
The self-cleavage was 0.03.

For A4G G21A G22C G40A, which self-cleavage is on record?
Its self-cleavage is 0.06.

With A4U C8A A11C as the variant, how does the self-cleavage read?
The self-cleavage was 0.09.

For A4G U9C A16U U20G, which self-cleavage is on record?
Its self-cleavage is 0.05.

Which self-cleavage does the source give for A4U A6G G27U here?
Its self-cleavage is 0.03.

For A4G U34C U38C, which self-cleavage is on record?
The self-cleavage was 0.02.

For A4U A6G A11U A39C, which self-cleavage is on record?
Its self-cleavage is 0.03.

For A4U A6G A14U, which self-cleavage is on record?
The self-cleavage was 0.04.

For A4G G5C C13U G35U U38G, which self-cleavage is on record?
Its self-cleavage is 0.8.

With A4G G22U G27U as the variant, how does the self-cleavage read?
The self-cleavage was 0.08.

For A4U C8U G27A U28C, which self-cleavage is on record?
Its self-cleavage is 0.05.

Which self-cleavage does the source give for A4U C10A A14G here?
The self-cleavage was 0.4.

Which self-cleavage does the source give for A4G G17A G19A U20G G40A here?
The self-cleavage was 0.08.

For A4G G7A C37G C45G, which self-cleavage is on record?
The self-cleavage was 0.22.

Which self-cleavage does the source give for A4G U32C A39U here?
The self-cleavage was 0.01.

For A4G U9A G21A, which self-cleavage is on record?
Its self-cleavage is 0.36.

For A4U A25U U32G U34C, which self-cleavage is on record?
The self-cleavage was 0.04.

For A4U A12U G21U G30A C42G, which self-cleavage is on record?
The self-cleavage was 0.01.

For A4U A6G C23U A26U, which self-cleavage is on record?
Its self-cleavage is 0.1.

With A4G G7C G40A C42A as the variant, how does the self-cleavage read?
The self-cleavage was 0.22.

With A4G G7U C31A G33A C42U as the variant, how does the self-cleavage read?
Its self-cleavage is 0.08.

Which self-cleavage does the source give for A4G U9G U20A G27A G33U here?
Its self-cleavage is 0.3.

For A4G G7U C23A C42G G44C, which self-cleavage is on record?
The self-cleavage was 0.07.

With A4U A11U C18A as the variant, how does the self-cleavage read?
The self-cleavage was 0.02.

For A4G G19A U20G, which self-cleavage is on record?
The self-cleavage was 0.04.

With A4G C31U G35U as the variant, how does the self-cleavage read?
The self-cleavage was 0.03.

With A4G G21A G29A C31A as the variant, how does the self-cleavage read?
Its self-cleavage is 0.64.

For A4G U38G A39U, which self-cleavage is on record?
Its self-cleavage is 0.31.

For A4G G5U C18A G40U C46U, which self-cleavage is on record?
The self-cleavage was 0.03.

For A4G G7C C13A G17C G22C G27U, which self-cleavage is on record?
The self-cleavage was 0.11.

For A4U A14U C37A G44U, which self-cleavage is on record?
Its self-cleavage is 0.03.

For A4U C8G A16C, which self-cleavage is on record?
Its self-cleavage is 0.03.

For A4G G33U A39U, which self-cleavage is on record?
The self-cleavage was 0.03.

With A4U A11C A25U as the variant, how does the self-cleavage read?
Its self-cleavage is 0.01.

For A4U A25G G29C U34G, which self-cleavage is on record?
The self-cleavage was 0.08.

With A4G G7A G30A C31U G40C as the variant, how does the self-cleavage read?
Its self-cleavage is 0.24.

With A4U A24G C31U as the variant, how does the self-cleavage read?
Its self-cleavage is 0.27.

For A4G G27C G35U, which self-cleavage is on record?
The self-cleavage was 0.15.

With A4U A6G U9A C23G as the variant, how does the self-cleavage read?
The self-cleavage was 0.05.

For A4G C31G G40A C42A, which self-cleavage is on record?
The self-cleavage was 0.61.

With A4U A16C A41U as the variant, how does the self-cleavage read?
The self-cleavage was 0.07.

For A4U A12C G19C G29C, which self-cleavage is on record?
Its self-cleavage is 0.01.

Which self-cleavage does the source give for A4G G22A G44A here?
The self-cleavage was 0.11.

For A4G U9C G35U G40U, which self-cleavage is on record?
The self-cleavage was 0.02.

With A4G G30C G36A A39G G40U as the variant, how does the self-cleavage read?
The self-cleavage was 0.11.

For A4U A11G G19A G21U U28A, which self-cleavage is on record?
The self-cleavage was 0.01.
